# Inconclusive means that the source gave no clear call. Such entries were picked first, then a sample of the others. A potency beside an inconclusive call is a rough fit, not a confirmed value. Activity calls are given as the source filed them. Unless noted, calls come from the whole dose curve.
# Tests used:
# [1] = target: Estrogen receptor beta (Homo sapiens) (UniProt Q92731); test: qHTS assay to identify small molecule antagonists of the estrogen receptor beta (ER-beta) signaling pathway (AID 1259378; active = well fitted inhibition curve with a large enough effect in the signal ratio in the repeat runs, not every such curve was filed as active; inconclusive = weak or mixed curves, or effect the other way; inactive = no such curve, though single readings can be large or run the other way; the % refers to the signal ratio); conditions: ER-beta-UAS-bla HEK293T, beta-lactamase FRET ratio, 16 h; activity, negative = inhibition: at 92.4 µM (top of the series) unless noted
# Procedure, shortened: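 ER-beta-UAS-bla HEK293T (GripTite) cells in 2% charcoal-stripped FBS medium were preincubated 6 hr at 37C, dosed with compound, then stimulated with 1 nM E2 (final) for 16 hr; beta-lactamase reporter read by B/G FRET fluorescence after 2 hr substrate loading.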
# [2] = target: Thyrotropin receptor (Homo sapiens) (UniProt P16473); test: qHTS assay to identify small molecule antagonists of the thyroid stimulating hormone receptor (TSHR) signaling pathway (AID 1259385); conditions: TSHR-HEK293 cAMP HTRF, TSH-stimulated antagonist mode; activity change, negative = inhibition: at 92.4 µM (top of the series) unless noted; note: nearly all actives have a fitted effect of over 20% in size
# Procedure, shortened: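 TSHR-HEK293 cells were plated and held 18 h at 37C/5% CO2, then given compound plus Ro20-1724 and stimulated with TSH at 1.5 ng/mL final. After 30 min at room temperature, cAMP was detected with cAMP-d2/anti-cAMP-cryptate (1 h) by fluorescence.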
# [3] = target: Progesterone receptor (Homo sapiens) (UniProt P06401); test: qHTS assay to identify small molecule agonists of the progesterone receptor (PR) signaling pathway (AID 1346784); conditions: PR-UAS-bla HEK293T, beta-lactamase FRET ratio, 16 h; activation: at 92.4 µM (top of the series) unless noted; note: nearly all actives have a fitted effect of over 30% in size
# Procedure, shortened: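 Cells (PR-UAS-bla HEK 293T, GripTite) were plated in assay medium containing 2% charcoal-stripped FBS and incubated 6 hr. Test compounds in DMSO were added for 16 hr at 37C. FRET substrate was then loaded for 2 hr at room temperature before fluorescence reading.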
# [4] = qHTS assay to identify small molecule agonists of the estrogen receptor alpha (ER-alpha) signaling pathway in the presence of an antagonist - cell viability counter screen (AID 1259386; active = well fitted cell-killing curve with a large enough effect in the repeat runs; inconclusive = weak or mixed curves, or effect the other way; inactive = no such curve, though single readings can be large or run the other way;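 note: cells exposed to compounds for 22 h at 37 °C before the viability read; nearly all actives have a fitted effect of over 30% in size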)
# Procedure, shortened: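 VM7Luc4E2, stripped-serum pre-culture 5 d; 24hr plating; +ICI-182,780 10.0nM final; cpds 15 conc, 22hr, 37C/5% CO2; CellTiter-Fluor added at 21hr, fluorescence 1hr later.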
# % is set by controls: 0 for no effect and ±100 for the full control effect; potency is the fitted concentration of half-maximal effect; tags give direction and shape of the fitted curve or compound fluorescence and quenching.
# Chain of UniProt P06401 (P06401 whole entry, looked up): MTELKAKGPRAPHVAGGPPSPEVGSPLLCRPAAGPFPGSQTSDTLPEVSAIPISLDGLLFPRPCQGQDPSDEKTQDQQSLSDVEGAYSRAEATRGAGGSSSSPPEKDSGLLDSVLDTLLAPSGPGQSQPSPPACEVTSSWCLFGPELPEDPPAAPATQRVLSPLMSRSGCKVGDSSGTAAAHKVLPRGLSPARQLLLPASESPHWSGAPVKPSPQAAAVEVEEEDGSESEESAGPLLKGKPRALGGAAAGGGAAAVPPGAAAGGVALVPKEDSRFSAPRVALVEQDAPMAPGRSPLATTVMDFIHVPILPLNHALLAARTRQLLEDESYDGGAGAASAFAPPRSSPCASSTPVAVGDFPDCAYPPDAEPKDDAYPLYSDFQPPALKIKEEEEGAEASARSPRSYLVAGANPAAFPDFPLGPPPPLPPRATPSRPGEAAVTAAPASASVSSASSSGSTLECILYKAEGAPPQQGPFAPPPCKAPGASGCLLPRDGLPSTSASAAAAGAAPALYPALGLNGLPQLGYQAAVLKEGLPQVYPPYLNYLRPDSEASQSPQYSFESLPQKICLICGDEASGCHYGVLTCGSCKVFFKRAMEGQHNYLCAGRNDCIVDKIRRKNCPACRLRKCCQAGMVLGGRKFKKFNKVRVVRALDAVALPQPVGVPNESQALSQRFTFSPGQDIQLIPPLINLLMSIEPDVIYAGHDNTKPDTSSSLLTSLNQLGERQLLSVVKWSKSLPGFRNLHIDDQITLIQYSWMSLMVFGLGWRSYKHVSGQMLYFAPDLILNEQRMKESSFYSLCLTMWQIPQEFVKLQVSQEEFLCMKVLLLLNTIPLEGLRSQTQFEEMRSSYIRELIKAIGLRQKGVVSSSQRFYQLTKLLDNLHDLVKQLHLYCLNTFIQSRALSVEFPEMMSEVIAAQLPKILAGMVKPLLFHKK
# Chain of UniProt Q92731 (Q92731 whole entry, looked up): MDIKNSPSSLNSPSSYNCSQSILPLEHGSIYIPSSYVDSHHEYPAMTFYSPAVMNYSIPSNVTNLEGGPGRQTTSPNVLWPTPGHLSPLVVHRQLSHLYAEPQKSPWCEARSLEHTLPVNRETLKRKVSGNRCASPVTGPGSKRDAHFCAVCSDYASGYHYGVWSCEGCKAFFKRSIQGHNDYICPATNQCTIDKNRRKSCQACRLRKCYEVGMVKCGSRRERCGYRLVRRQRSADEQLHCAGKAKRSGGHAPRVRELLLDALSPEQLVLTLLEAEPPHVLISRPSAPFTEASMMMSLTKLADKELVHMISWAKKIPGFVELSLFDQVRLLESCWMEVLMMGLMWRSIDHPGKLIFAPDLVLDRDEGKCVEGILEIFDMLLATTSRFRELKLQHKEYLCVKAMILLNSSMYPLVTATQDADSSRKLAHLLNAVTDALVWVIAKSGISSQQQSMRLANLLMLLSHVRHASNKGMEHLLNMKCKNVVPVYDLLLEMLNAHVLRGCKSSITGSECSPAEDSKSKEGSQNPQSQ
# Chain of UniProt P16473 (P16473 whole entry, looked up): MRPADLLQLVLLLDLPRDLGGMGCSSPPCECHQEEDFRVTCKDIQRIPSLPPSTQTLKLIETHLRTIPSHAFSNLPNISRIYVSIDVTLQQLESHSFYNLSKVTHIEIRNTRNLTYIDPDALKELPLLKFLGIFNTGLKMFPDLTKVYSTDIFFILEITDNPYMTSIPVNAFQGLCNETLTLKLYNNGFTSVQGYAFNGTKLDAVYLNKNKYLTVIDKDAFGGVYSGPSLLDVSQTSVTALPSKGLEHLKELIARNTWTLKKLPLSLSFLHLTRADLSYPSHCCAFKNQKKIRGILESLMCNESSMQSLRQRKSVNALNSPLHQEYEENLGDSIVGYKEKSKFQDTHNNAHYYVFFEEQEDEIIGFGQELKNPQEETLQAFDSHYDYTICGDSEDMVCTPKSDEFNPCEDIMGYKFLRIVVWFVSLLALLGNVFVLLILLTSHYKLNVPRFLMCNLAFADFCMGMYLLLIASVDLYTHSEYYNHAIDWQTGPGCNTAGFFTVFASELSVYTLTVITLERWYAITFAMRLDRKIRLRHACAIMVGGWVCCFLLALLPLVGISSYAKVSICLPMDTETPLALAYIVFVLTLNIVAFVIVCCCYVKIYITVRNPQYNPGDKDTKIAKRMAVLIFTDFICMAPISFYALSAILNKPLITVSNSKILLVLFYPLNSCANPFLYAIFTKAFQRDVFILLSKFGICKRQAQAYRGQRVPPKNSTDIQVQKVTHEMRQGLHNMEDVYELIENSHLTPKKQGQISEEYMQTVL
smiles,measurement,setting,value
CN(C)/N=N/c1nc[nH]c1C(N)=O,"activity, negative = inhibition",[1],inconclusive: 11.3% [at 42.5 µM]
same,Potency,[2],"inconclusive: 37.6 µM [falling, partial curve, poor fit]"
COc1ccc(C(=O)c2ccccc2O)c(O)c1,Potency,[1],"inconclusive: 24.3 µM [rising, partial curve]"
same,Potency,[3],"inconclusive: 68.4 µM [cytotoxic, partial curve, poor fit]"
O=C1CCCCCCCCCCCCCCO1,Potency,[1],inactive
same,"activity change, negative = inhibition",[2],inconclusive: -8.04%
same,Potency,[4],inactive
C/C(C=O)=C\c1ccccc1,Potency,[1],inactive
same,Potency,[2],inactive
CC(C)[C@@H]1CC[C@@H](C)C[C@H]1O,"activity, negative = inhibition",[1],inconclusive: 20.1%
same,Potency,[3],inactive
CCN(CC)C(=O)/C(C#N)=C/c1cc(O)c(O)c([N+](=O)[O-])c1,"activity, negative = inhibition",[1],inconclusive: -28.8% [at 42.5 µM]
same,activation,[3],inconclusive: 23.5% [at 42.5 µM]
CCC(C)C=O (stereo unspecified),"activity, negative = inhibition",[1],inconclusive: -24.1%
same,Potency,[2],"inconclusive: 0.0486 µM [rising, full curve, poor fit]"
CC/C=C\CCOC(=O)c1ccccc1O,Potency,[1],inactive
same,Potency,[4],inactive
CN(C)C(=O)Nc1ccc(Oc2ccc(Cl)cc2)cc1,"activity, negative = inhibition",[1],inconclusive: -42.6%
same,Potency,[4],inconclusive: 54.5 µM [cytotoxic]
CC1=C(C(=O)O)N2C(=O)[C@@H](NC(=O)[C@H](N)C3=CCC=CC3)[C@H]2SC1,"activity, negative = inhibition",[1],inconclusive: 14.3% [at 42.5 µM]
same,Potency,[2],inactive
CCCCCC/C=C/CCCCCCCC(=O)O,Potency,[1],inactive
same,Potency,[2],inactive
CC1(C)[C@@H](OC(=O)CCC(=O)O)CC[C@]2(C)[C@H]3C(=O)C=C4[C@@H]5C[C@@](C)(C(=O)O)CC[C@]5(C)CC[C@@]4(C)[C@]3(C)CC[C@@H]12,"activity, negative = inhibition",[1],inconclusive: -35.9% [at 42.5 µM]
same,Potency,[2],inactive
Cn1c(=O)cc(Oc2ccc(F)cc2F)c2cnc(NCC(C)(C)O)nc21,"activity, negative = inhibition",[1],inconclusive: -34.4%
same,Potency,[4],"inconclusive: 61.1 µM [cytotoxic, partial curve, poor fit]"
same,Potency,[3],inactive
Cc1cc(CC(=O)O)n(C)c1C(=O)c1ccc(Cl)cc1,Potency,[1],inactive
same,Potency,[2],"inconclusive: 68.5 µM [falling, single point]"
Nc1ccc([N+](=O)[O-])c(C(F)(F)F)c1,Potency,[1],inactive
same,Potency,[2],inactive
same,Potency,[4],"inconclusive: 26.6 µM [cytotoxic, partial curve]"
Cc1onc(-c2ccccc2)c1-c1ccc(S(N)(=O)=O)cc1,"activity, negative = inhibition",[1],inconclusive: -40.1% [at 42.5 µM]
same,Potency,[3],inactive
COc1cc2c3cc1Oc1cc(ccc1O)C[C@@H]1c4c(cc(OC)c(O)c4Oc4ccc(cc4)C[C@@H]3N(C)CC2)CC[N+]1(C)C,Potency,[1],"inconclusive: 29.8 µM [activator, partial curve]"
same,Potency,[3],inactive
COC(=O)c1ccc(C(=O)OC)cc1,Potency,[1],inconclusive: 6.19 µM [full curve]
same,Potency,[4],"inconclusive: 43.8 µM [cytotoxic, partial curve]"
Cc1ccc2c(ccc3ccccc32)c1,"activity, negative = inhibition",[1],inconclusive: -9.01%
same,Potency,[2],"inconclusive: 68.8 µM [falling, single point]"
CCOC(=O)[C@H](CCc1ccccc1)N[C@@H](C)C(=O)N1C(=O)N(C)C[C@H]1C(=O)O,Potency,[1],inactive
same,Potency,[4],inactive
O=C(Cl)c1ccc(Cl)cc1Cl,"activity, negative = inhibition",[1],inconclusive: -19.3%
same,Potency,[3],inactive
c1cc[c]([Bi]([c]2ccccc2)[c]2ccccc2)cc1,Potency,[1],"inconclusive: 21.7 µM [rising, full curve]"
same,Potency,[3],"inconclusive: 30.6 µM [cytotoxic, partial curve, poor fit]"
NC(Cc1ccc(F)cc1)C(=O)O (stereo unspecified),"activity, negative = inhibition",[1],inactive: 7.98% [at 8.39 µM]
same,"activity change, negative = inhibition",[2],inactive: -1.13% [at 8.39 µM]
same,activation,[3],inactive: 0.365% [at 8.39 µM]
CC(CO)c1ccccc1 (stereo unspecified),Potency,[1],inactive
same,Potency,[3],inactive
CCCCN1CCCC1C(=O)Nc1c(C)cc(C)cc1C (stereo unspecified),"activity, negative = inhibition",[1],inconclusive: 14.2% [at 42.5 µM]
same,Potency,[2],"inconclusive: 15 µM [falling, partial curve]"
COc1ccc(CCN(C)CCCC(C#N)(c2cc(OC)c(OC)c(OC)c2)C(C)C)cc1OC (stereo unspecified),Potency,[1],inactive
same,"activity change, negative = inhibition",[2],inconclusive: 7.94% [at 42.5 µM]
same,Potency,[4],"inconclusive: 21.1 µM [cytotoxic, partial curve]"
NC(=O)N(O)[C@@H]1COc2cc(OCc3ccccc3)ccc21,Potency,[1],"inconclusive: 15.4 µM [rising, partial curve, poor fit]"
same,Potency,[3],"inconclusive: 5.45 µM [falling, partial curve, poor fit]"
CCCOC(=O)C(C)O (stereo unspecified),Potency,[1],inactive
same,Potency,[2],"inconclusive: 7 µM [falling, single point]"
